Experimental findings from PubChem BioAssay AID463173 (ICCB-Longwood Screening Facility, Harvard Medical School, 2010) are described below.

The campaign covered roughly 52,000 compounds. About 1,700 (3.3%) were called active. Cut-off read from the data, not from the text of the source: active = survival mostly below about 52% (no sharp cut-off); inactive = mostly above about 56%. Some of the results follow.

This assay relates to Wild type. Briefly: S. aureus survival, RN4220 and DeltatarO strains – OD600, teichoic acid synthesis inhibitors, primary screen (AID 463173). The settings on record: S. aureus RN4220 wild type/DeltatarO growth, OD600, 18 h, active compounds read low, screened at 18.75 µg/mL (by protocol).
`O=S(=O)(c1ccc(Cl)cc1)c1nc(-c2cccc(Br)c2)oc1NCc1ccccc1`: the survival is inactive: 98%.

Regarding `O=C(c1ccco1)N1CCN(c2nc3c(F)cc(F)cc3s2)CC1`, the survival is inactive: 120%.

As to `Cc1cccc(-c2noc(-c3ccc(NCc4ccco4)c([N+](=O)[O-])c3)n2)c1`, the survival is inactive: 86%.

Regarding `COc1cccc(-c2ccc(-c3noc(-c4ccccc4Br)n3)c(OC)n2)c1`, the survival was inactive: 37%.

With `CCC(=O)N1c2ccccc2CC1C(=O)NCc1cccc(OC)c1OC` (stereo not drawn), the survival was inactive: 77%.

For `CCC(C)(C)C(=O)Nc1ccc(Cl)cc1`, the survival was inactive: 119%.

For `COc1cc(OC)cc(C(=O)Nc2cc(-c3nc4ccccc4[nH]3)ccc2C)c1`, the survival was inactive: 79%.

With `CCOC(=O)C1CCCN(c2nc3c(S(=O)(=O)c4ccc(Br)cc4)nnn3c3ccsc23)C1` (stereo not drawn), the survival was inactive: 78%.

`O=C(/C=C/c1ccco1)Nc1ccc(F)cc1`: the survival was inactive: 69%.

For the compound `COC(=O)c1c(SC)nc2ccccc2c1OCc1ccc(Br)cc1`, the survival is inactive: 47%.

In the case of `O=c1c2sccc2n(Cc2cc(=O)n3ccccc3n2)c(=O)n1-c1cc(F)ccc1F`, the survival was inactive: 75%.

Consider `CCn1nc(-c2ccccc2)c(-c2ccccc2)c(C(=O)Nc2ccc(S(N)(=O)=O)cc2)c1=O`, for which the survival was inactive: 82%.

For `COc1ccc(C(=O)Nc2ccc(-c3nnc4n3CCCCC4)cc2)cc1`, the survival was active: -3%.

Consider `COc1cccc2c1Oc1ncccc1N(C(=O)CCC(=O)NCCC(C)C)C2`, for which the survival is inactive: 73%.

Turning to `Cc1ccccc1CNC(=O)c1nn(-c2ccccc2F)nc1CO`, the survival is inactive: 87%.

`O=S(=O)(c1ccc(Cl)cc1)c1nc(-c2ccccc2Br)oc1NCc1ccccc1`: the survival was inactive: 96%.

For `Cc1cc(C)c(NC(=O)CSc2nc3ccccc3c3nc(CCn4cncc4C)nn23)c(C)c1`, the survival was inactive: 72%.

For the compound `CCN1CCN(C(=O)c2ccc3c(c2)N(Cc2cccc(Cl)c2)C(=O)c2ccccc2S3=O)CC1` (stereo not drawn), the survival was inactive: 81%.

Take `CCN(CC)CCCNc1cc(-c2ccccc2)nc(C)n1`: the survival is inactive: 85%.

Regarding `Cc1ccc(C)c(OCCn2c(C3CC(=O)N(Cc4ccc(F)cc4)C3)nc3ccccc32)c1` (stereo not drawn), the survival is active: -16%.

Consider `COc1ccc(CCNC(=O)CSc2nc3nc(C)c(Cc4ccc(C)cc4)c(C)n3n2)cc1OC`, for which the survival is inactive: 65%.

On to `Cc1ccc(/C=C/C(=O)Nc2nc(-c3cccs3)ns2)cc1`, for which the survival is inactive: 82%.

With `COc1ccc(-n2cc(C(=O)N(CCN(C)C)Cc3ccccc3)c3ccccc3c2=O)cc1`, the survival is inactive: 92%.

As to `CCOc1ccc2nc(N3CCN(C(=O)c4ccc(S(=O)(=O)CC)cc4)CC3)sc2c1`, the survival was inactive: 87%.

As for `COc1ccc(Cn2c(=O)[nH]c3cc(C(=O)NCCC(C)C)ccc3c2=O)cc1`, the survival is inactive: 74%.

`CCn1c(C)c(C)c2cc(C(=O)NCCCN3CCCCC3C)ccc21` (stereo not drawn): the survival was inactive: 65%.

On to `COc1ccc(CNC(=O)CS(=O)Cc2nc(-c3ccc(OC)c(OC)c3)oc2C)cc1` (stereo not drawn), for which the survival was inactive: 90%.

In the case of `Cc1ccc(N(CC(=O)Nc2cccc(Cl)c2C)S(=O)(=O)c2c(C)noc2C)cc1`, the survival is inactive: 74%.

With `COc1cc(C(=O)N(Cc2ccc(F)cc2)Cc2ccco2)cc(OC)c1OC`, the survival is inactive: 108%.

Turning to `COc1cccc(-n2c(SCc3ccc(F)cc3)nc3c([nH]c4ccccc43)c2=O)c1`, the survival is inactive: 101%.

As for `Cc1ccc2nc(-c3ccc(Cl)s3)c(Nc3ccc4c(c3)OCCO4)n2c1`, the survival was inactive: 81%.

`COC(=O)c1ccc(NC(=O)CN(C)S(=O)(=O)c2ccc(Br)s2)cc1`: the survival is inactive: 72%.

As to `COc1ccc(Cn2ccnc2SCC(=O)Nc2nnc(C)s2)cc1`, the survival is inactive: 115%.

For the compound `Cc1nn2c(C)c(C(=O)NCc3ccc(OC(C)C)cc3)cnc2c1-c1ccc(F)cc1`, the survival was inactive: 76%.

On to `CCn1c(=O)cc(OCC(=O)N2CCN(c3cccc(C)c3C)CC2)c2ccccc21`, for which the survival was inactive: 131%.

Regarding `Cc1cccc(NC(=O)CN2C(=O)C(c3ccc(F)cc3)=NC23CCCCCC3)c1`, the survival was inactive: 98%.

`COc1cccc(CNC(=O)CN2C(=O)COc3ccc(S(=O)(=O)N4CCOCC4)cc32)c1`: the survival was inactive: 98%.

Take `Cc1ccc(CNC(=O)c2ccc(N3CCCC3)c(NC(=O)Nc3ccc(F)c(Cl)c3)c2)cc1`: the survival was inactive: 77%.

In the case of `Cc1ccc2c(c1)-c1c(c(C(=O)N3CCN(c4cc(C)ccc4C)CC3)nn1C)CS2`, the survival was inactive: 88%.

Take `CCN(CCCNC(=O)c1nn(-c2ccc(C)cc2)c(=O)c2c1c1ccccc1n2C)c1cccc(C)c1`: the survival is inactive: 83%.

As to `Cc1ccc(CNC(=O)C(C)n2nc(C)c3sc4ccccc4c3c2=O)cc1` (stereo not drawn), the survival is inactive: 105%.

As to `Cc1cc(C)c(NC(=O)Cn2c(=O)n(Cc3ccc(C(=O)NCc4ccc5c(c4)OCO5)cc3)c(=O)c3ccccc32)c(C)c1`, the survival was inactive: 83%.

Regarding `COc1ccc(NC(=O)Cn2c(=O)c3ccccc3n3nncc23)c(OC)c1`, the survival is inactive: 85%.

Turning to `CC(=O)c1c(C)oc2c1cc(NS(=O)(=O)c1ccc(C(C)(C)C)cc1)c1ccccc12`, the survival is inactive: 50%.

For the compound `COc1ccc(NC(=O)c2cc(S(=O)(=O)N3CCCC3)ccc2OC)cc1`, the survival was inactive: 77%.

`COC(=O)c1ccccc1NC(=O)CN1C(=O)COc2ccc(Cl)cc21`: the survival was inactive: 62%.

For the compound `COc1cccc(C(=O)Oc2c(Sc3ccc(C)cc3)c(C)nn2C(C)(C)C)c1OC`, the survival is inactive: 23%.

With `Clc1ncnc2c1oc1ccccc12`, the survival was inactive: 118%.

With `CC(C)Cc1nn2c(=O)cc(COC(=O)c3ccc(NC(=O)C4CCCCC4)cc3)nc2s1`, the survival is inactive: 73%.

Turning to `O=C(Oc1ccccc1)c1ccc2nccnc2c1`, the survival is inactive: 122%.

As for `O=C(CNS(=O)(=O)c1ccc(Cl)cc1)NN=C1CCCCC1`, the survival was inactive: 106%.

For the compound `CCOc1ccccc1NC(=O)c1ccc(F)c(S(=O)(=O)N2CCN(c3ccc(F)cc3)CC2)c1`, the survival was inactive: 60%.

As for `CCOc1ccc(NC(=O)c2cc(C)nc3c2c(C)nn3-c2ccc(C)cc2)cc1`, the survival was inactive: 130%.

In the case of `Cc1cccc(C(=O)N2CCc3cc(CNC(=O)CSc4ccccc4)ccc32)c1`, the survival is inactive: 73%.

For `CCOc1ccc(C(=O)NCCSc2c(C)[nH]c3ccccc23)cc1OCC`, the survival is inactive: 86%.

For the compound `CCOc1ccc(C(=O)NCC(c2cccs2)S(=O)(=O)c2ccccc2)cc1` (stereo not drawn), the survival is inactive: 113%.

On to `CCc1cc2c(=O)[nH]cnc2s1`, for which the survival was inactive: 106%.

As to `Cc1ccccc1CNC(=O)CSc1nnc(C)c2c(C)n(-c3ccccc3)nc12`, the survival is inactive: 127%.

`COc1ccccc1CNC(=O)c1cc2c(s1)-c1ccc(Cl)cc1SC2`: the survival was inactive: 88%.

Regarding `O=C1c2ccccc2-c2n[nH]c(=S)nc21`, the survival is inactive: 106%.

As for `CCCCOc1ccc(C2C(C(=O)Nc3ccccc3OC)=C(C)Nc3nnnn32)cc1OC` (stereo not drawn), the survival was inactive: 108%.

In the case of `CC(=O)N1CCCc2cc(S(=O)(=O)N3CCC(C(=O)Nc4ccc(C)cc4Cl)CC3)ccc21`, the survival is inactive: 54%.

Turning to `Cc1ccc(S(=O)(=O)n2nc(C)c(S(=O)(=O)N3CCCCCC3)c2C)cc1C`, the survival was inactive: 59%.

Take `Cc1ccn2c(Nc3ccc4c(c3)OCCO4)c(-c3ccccc3O)nc2c1`: the survival was inactive: 82%.

`O=C(COc1ccc(Cl)cc1)Nc1nnc(S(=O)(=O)N2CCCCCC2)s1`: the survival was inactive: 75%.

As for `CCOc1cccc(CC(=O)N2CCc3c([nH]c4ccc(OC)cc34)C2c2ccc(F)cc2)c1OCC` (stereo not drawn), the survival is inactive: 89%.

As for `CCOC(=O)c1c(NC(=O)c2cc(-c3ccc(OC)c(OC)c3)on2)sc(C)c1C`, the survival is inactive: 86%.

For the compound `CCN(CC)CCCNC(=O)CCC(=O)NNc1nc2ccccc2c2nc(C)nn12`, the survival is inactive: 81%.

In the case of `COc1ccccc1N1CCN(C(CNC(=O)C(=O)NCc2cccnc2)c2cccnc2)CC1` (stereo not drawn), the survival is inactive: 82%.

Turning to `Cc1cc(NC(=O)Nc2nnc(N3CCCCCC3)s2)ccc1Br`, the survival is inactive: 88%.

Consider `Cc1ccc(NC(=O)c2oc3c(c2C)-c2[nH]ncc2CC3)c(Cl)c1`, for which the survival was inactive: 87%.

As to `Cc1ccc(CNC(=O)c2ccc(Nc3nc4ccccc4n4nnnc34)cc2)cc1`, the survival was inactive: 138%.

On to `Cc1ccc(-c2nn(-c3ccccc3)c3c2cnc2ccccc23)cc1C`, for which the survival was inactive: 68%.

As for `COc1ccc(OC)c(-c2noc(N3CCN(c4ccc(Cl)cc4)CC3)n2)c1`, the survival is inactive: 72%.

Consider `Cn1cnc(S(=O)(=O)N2CCCC(C(=O)NCc3ccc(F)cc3)C2)c1` (stereo not drawn), for which the survival is inactive: 47%.

Take `CC(C)c1ccc(NS(=O)(=O)c2cc(Br)cc3c2N(C(=O)C2CC2)CC3)cc1`: the survival was inactive: 69%.

Take `CCn1c(-c2ccccc2)cnc1SCC(=O)c1sc2c(c1C#N)CCCC2`: the survival is inactive: 110%.

As to `CCOc1ccc(NC(=O)C(=O)NCCc2csc(-c3ccc(C(F)(F)F)cc3)n2)cc1`, the survival was inactive: 75%.

Regarding `COc1ccc(CCNC(=O)c2ccc3c(c2)N(Cc2ccccc2)CCS3)cc1OC`, the survival is inactive: 86%.

As to `Cc1ccc(C(=O)N2CCn3c4c(c5cc(C)ccc53)CCCC42)cc1` (stereo not drawn), the survival was active: -10%.

`Cc1cc(C)cc(NS(=O)(=O)c2ccc3[nH]cc(C(=O)NCCc4ccccc4)c(=O)c3c2)c1`: the survival is inactive: 75%.

For `COc1ccc(NC(=O)CN2CCN(Cc3ccccc3Cl)S2(=O)=O)cc1Cl`, the survival was inactive: 71%.

Consider `Cc1nn2c(=O)cc(COC(=O)c3ccccc3NC(=O)c3cccs3)nc2s1`, for which the survival was inactive: 64%.

For the compound `CC(C)NC(=O)c1ccc2c(c1)N(Cc1cccc(Cl)c1)C(=O)c1ccccc1S2=O` (stereo not drawn), the survival is inactive: 47%.

Regarding `CCc1ccccc1NS(=O)(=O)c1ccc2c(c1)CCCN2C(=O)C1CCC1`, the survival was inactive: 120%.

On to `COC(=O)c1sc2c(c1C)c(=O)n(-c1ccccc1)c(=O)n2CC(=O)Nc1cccc(C)c1`, for which the survival is inactive: 60%.

For the compound `CCCN1C(=O)C(O)(CC(=O)c2ccc(C(C)C)cc2)c2ccccc21` (stereo not drawn), the survival is inactive: 129%.

Consider `CCN(C(=O)Cn1c(=O)oc2cc(S(=O)(=O)N3CCCCC3)ccc21)c1ccccc1`, for which the survival was inactive: 79%.
